Assay results published in the supplement of paper PMC10126150.
Sequences with one replicate were seen in a single cluster, so their values are uncertain.

Test system: ATP
Assay: switch fluorescence ratio, 500 uM ATP over buffer (Cy3 cluster intensity, sum of 5 cycles each) (fold (ratio)); higher = stronger signal-on switching upon ATP binding; sequences stand for … in TCGTCGGCAGCGTCAGATGTGTATAAGAGACAGTTTTTTTTTTTTTTTTTTTTTTTTT…TC
Conditions: aptamer strand: ATP DNA aptamer (quencher-CACCTGGGGGAGTATTGCGGAGGAAGG + anchor), 100 nM annealed; ATP concentration: 500 uM; one replicate
Method in brief: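 Between each of five buffer/ATP cycles, the flow-cell was stripped with NaOH and re-annealed. Each cycle imaged Cy3-labelled switching-strand clusters, annealed to 100 nM quencher-labelled ATP aptamer on a modified Illumina MiSeq flow-cell, first in selection buffer and then after 15 min with 500 uM ATP at 22 °C. The fluorescence ratio is summed target-cycle over summed buffer-cycle Cy3 intensity per cluster, averaged per switch-domain sequence, with clusters outside 100-1000 RFU excluded.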
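Further: ATP exposure 15 min at 22 °C before imaging.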

Sequence	switch fluorescence ratio
CCTGTTGCAG	1.08
ATGAGTGTAT	0.984
GCAATCCAGG	5
TTGACACCAA	1.06
TTAACTTATA	1.03
GCGTATTAAC	1.03
CATCTTTATG	1
GTAGGATGTC	0.985
TTTAGTTGCT	1
CGTACCAAAC	2.06
GAGGACAAGA	1.02
ATTTCTACG	1.07
GGTTCATGTA	1.03
AAATATTGTA	0.996
CCCGTTGTGA	1.02
TGATGTATAA	0.991
GATCGCGGTG	1.04
CCGATGCCCC	3.63
TCCGTTTAAC	1.74
TCACGTTCCG	1.03
ATGATCGCAC	1.55
CCAAACCTGT	1.13
GACGGGCCT	0.979
TTAGCCGTC	1.01
TGATTTGAAT	1.13

Sequence	switch fluorescence ratio
TAGGCTTGCA	1.01
ATAGTTTATT	0.993
AAACTTACCG	1.14
TCGTGTATAC	2.05
CGAGACTTTT	1.04
GGGCTTATGT	0.964
ATTAGATCTT	0.987
TTGTTCTAGA	0.974
GGGTAGACGC	0.974
GTCGATTTGT	0.998
GTACTTACGT	1.33
CCCTCGTGCG	1
ATTTGGTCAT	1.12
AGTACGTATC	1.15
TCTCAGATGG	0.993
GGTTAGGTTA	1.01
AGCCGGGGTG	1.06
GGGTTTTAAT	1.02
ACAGGAACCA	1.07
AAGGAATCAG	1.06
CGTATTGTCC	1.06
ACGATTTAGG	0.985
GTTGCCGCCT	1.01
AATCAGGTAC	1.05
CCGTAACGTG	1.18

Sequence	switch fluorescence ratio
GTAATGAA	0.99
GCTGTACCGA	1.04
TGTCGGATAC	1.15
GGTATGCCCT	1.04
TTGGAGTATG	1.01
GGGAAAATAC	1.08
TAGGTAAAAC	1.02
TTTACTCGAC	1.21
GGCCCAGCCA	0.995
GCGTCTTCAC	1.03
CGACTAGTTC	0.996
TACGTTTACC	1.24
GTTGGGGTCC	1.03
AGCGCGCCTG	1.01
CCACAGACTA	1.19
GGTCACTCTA	1.07
CTTTTAGCAT	1.16
GATTTGTAGA	1.02
CACGGCACGG	1.28
TGGATCTTGT	0.98
CTGAGGAATG	1.02
CCGTGGCTGA	1.04
TGGTTAGATA	1.02
CTTATATAGC	1.03
GGAATTGCGG	1.01

Sequence	switch fluorescence ratio
CCAGATAGAT	1.04
CTCAATGAAA	0.981
GACGAGGGGA	1.18
ATCGTGTCTA	0.982
GTGAAAATAA	0.989
ATCTACCGGG	1.01
GCCCACCTAG	1.05
AATTTTAACC	1.07
TGCTATCCAA	1.01
CCCAGGAATG	1.42
TCCTGACGTG	1.05
TATGGCGTTG	0.972
TTTCCAGAGG	1.25
GCCAAGTAAG	0.996
TGGGTTTCG	1.04
TGTCGTGTGG	0.995
GACGTCAATT	1
GCCTTAGCCC	1.01
AGGGGGGTC	0.997
CTGATGGAA	1.04
TTCTGCGGAC	3.25
AACGAACAGA	1.24
CTAGAAATGT	1.02
TCAATAGTG	1.01
ATATTTTAGA	1.04

Sequence	switch fluorescence ratio
GACAGGAAAA	1.06
AACGTATATC	1.21
ATAGGCGCGT	1.01
CTATGTAA	1
ACGTGATATC	1.84
GGGCCTAGAT	0.96
TTTATCGCGG	1.01
GCGTGTCTAA	1
TTTCCGCCTG	1.15
AGGGTAACAG	1.01
ATGGTCACTT	0.999
TGGCCTTTC	1.36
GGAAGTGGTG	1.01
TCGGTTACTG	1.07
GAAACCCCGT	1.01
CCTACCGGGA	1.48
AAATCATTTC	1.03
GTAGTTTACT	0.927
CCCCTAGTCA	1.06
AACCTATAAG	0.982
CTGAGATATG	1
ACAGCCTGCA	1
AGCTTGTGGG	0.974
ACGTTTTGTT	1.01
GATGATAGTT	0.923

Sequence	switch fluorescence ratio
CGCAAGGGGT	1.46
CCAGTGCTCC	1.96
GGGGTTTCAT	0.96
CGCACTTACT	3.86
ATGGAGATCG	0.977
TGCCAAGGGC	1.03
GGGTTGCCAT	0.977
CGATCGGGTT	1.02
TCGCCCCCGG	1.46
GTCTTAGATT	1.01
TCATAATGAA	1.02
TGCAATTAAT	1.13
CCGCGTTTTG	1.18
ACTGATATAA	0.973
AAAGGTTTCT	1.12
ACCGCCCCCC	3.37
GATGTCTTAG	0.99
TCTTTGTCGC	1.02
AAGCAGTCTT	0.998
CCGGGGTTCC	1.02
GGTTCGCATG	1.69
TATTAGTGCA	1.03
GGCACTTAGG	1.03
GCGTTTGTTG	0.933
CAACAGCTTA	1.07

Sequence	switch fluorescence ratio
CAATAACGTG	1.06
CGCCGCAGTT	5.37
TTCTACAATT	0.979
TTGAGACT	1.01
AGGTGTCAGA	1.07
GTGTTCAGGC	1
CTATGTCTGC	0.985
CTTATCGGCG	0.974
CGCTCAAAG	1.02
GAACCCAACG	1.21
ATACCAGTGG	0.965
CAGGCTCGTA	1.04
ATTTGCTTT	0.919
ATGAGTTTCC	1.02
GGTCATCTAT	1.01
ACATCGGTCG	1.04
AAAATCTGAG	1.09
GGCCTTGCCG	1.02
AATTGGGTCG	1.03
GTTATCCTG	0.975
CTATTCGACG	0.973
GAGTGAGCAT	1.05
TCACGCAGGA	1.12
GCTCGACCTT	1.11
AGGTGACACT	1.03

Sequence	switch fluorescence ratio
CGTCTAGCGA	1.08
TACTGAGATT	1.05
CTGATACCGG	0.95
GTCTATGCAT	1.04
GTGCAAAGTA	1.03
CATCCGTTTT	1.78
GACAAATCTT	1.06
TATGTTAAAA	1.14
GGTCCTGGGT	0.985
AACTGGTTCG	1.02
CTCAGGAGTC	1.11
AGGTTTCATC	1.04
GGACGGAGGG	1.04
TAAGGTAATG	1.01
CGGATGCCGC	1.13
ATCTCGACGG	1.02
ACCATTCGGG	1.01
CGTCAATGAC	1.97
ACATGAGCGA	0.881
TATAATCTGG	0.965
CTCGGTAACG	1.05
AAGGGAAGAT	0.997
AGTCGATCCT	1.03
CTTTGGGCAT	1.01
ATCGCTAATA	1.2
